{"source": "PubChem BioAssay AID588342", "about": "(National Center for Advancing Translational Sciences (NCATS), 2011)", "note": "About 25,000 (6.9%) of roughly 360,000 compounds were called active. The shares of active, inactive and inconclusive entries below differ from those in the screen. Calls come from the whole dose curve; as a rule, active = well fitted inhibition curve with a large enough effect; inconclusive = small, poorly fitted or top-dose-only effect; inactive = flat fitted curve, though single readings scatter. Potencies beside an inconclusive call are fits to weak or partial responses and may not hold up. Potency is the fitted concentration of half-maximal effect; tags give direction and shape of the fitted curve.", "data": [{"biological_target": "Luciferin 4-monooxygenase (Photinus pyralis) (UniProt P08659)", "sequence (P08659 whole entry, looked up)": "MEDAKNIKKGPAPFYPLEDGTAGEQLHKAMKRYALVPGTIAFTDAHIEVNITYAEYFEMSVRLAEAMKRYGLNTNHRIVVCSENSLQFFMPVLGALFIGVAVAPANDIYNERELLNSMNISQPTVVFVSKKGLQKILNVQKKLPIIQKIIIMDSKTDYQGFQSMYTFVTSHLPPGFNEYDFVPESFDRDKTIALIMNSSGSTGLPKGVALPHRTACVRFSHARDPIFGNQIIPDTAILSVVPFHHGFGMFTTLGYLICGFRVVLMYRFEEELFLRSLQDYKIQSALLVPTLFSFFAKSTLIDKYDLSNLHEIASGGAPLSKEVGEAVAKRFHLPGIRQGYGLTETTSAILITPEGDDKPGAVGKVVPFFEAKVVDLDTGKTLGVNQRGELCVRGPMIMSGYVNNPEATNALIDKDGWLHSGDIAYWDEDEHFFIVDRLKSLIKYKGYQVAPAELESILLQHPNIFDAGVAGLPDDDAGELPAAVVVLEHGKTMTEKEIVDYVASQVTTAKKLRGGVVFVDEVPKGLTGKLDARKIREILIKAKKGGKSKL", "assay": "qHTS profiling assay for firefly luciferase inhibitor/activator using purifed enzyme and Km concentrations of substrates (counterscreen for miR-21 project); note: nearly all actives have a fitted effect of over 55% in size", "conditions": "purified FLuc, luminescence inhibition; series mostly up to 57.5 µM", "outline": "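Purified P. pyralis luciferase, 10 nM final, with Km-level 10 uM D-luciferin and 10 uM ATP in 50 mM Tris acetate pH 7.5, 10 mM Mg acetate, 0.01% Tween-20, 0.05% BSA; 6-point qHTS titration about 60 µM downward; luminescence read.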", "values": [{"smiles": "COc1ccc(OC)c(Cc2nnc(CCC(=O)N3CCCCC3c3nccs3)o2)c1", "note": "(stereo unspecified)", "Potency": "active: 23.9 µM"}, {"smiles": "Cc1cccc(NCc2ccc(Br)cc2)n1", "Potency": "inconclusive: 15.1 µM [inhibitor, partial curve]"}, {"smiles": "O=C(Nc1ccc(Cl)cc1F)C1CC1c1ccccc1", "note": "(stereo unspecified)", "Potency": "inconclusive: 21.3 µM [inhibitor, partial curve, poor fit]"}, {"smiles": "Clc1ccc(-c2cnc(Oc3ccccc3)nc2)cc1", "Potency": "active: 2.69 µM"}, {"smiles": "O=C(Nc1ccccc1)NC1CCCCC1", "Potency": "inconclusive: 19 µM [inhibitor, partial curve]"}, {"smiles": "COc1cccc(C(=O)/C=C/Nc2ccc(S(=O)(=O)Nc3cnc4ccccc4n3)cc2)c1", "Potency": "inconclusive: 30.1 µM [inhibitor, single point]"}, {"smiles": "Cc1cc([N+](=O)[O-])nn1Cc1ccc(C(=O)N/N=C/c2ccc(N(C)C)cc2)cc1", "Potency": "active: 9.53 µM"}, {"smiles": "COc1ccc(-c2nc(SCC(=O)Nc3c(C)cc(C)cc3C)n[nH]2)cc1", "Potency": "active: 15.1 µM"}, {"smiles": "COc1ccc(CC2S/C(=N/N=C/c3ccc(O)cc3)NC2=O)cc1", "note": "(stereo unspecified)", "Potency": "active: 0.426 µM"}, {"smiles": "O=c1c2[nH]c3ccc(F)cc3c2nc2n1CCCS2", "Potency": "inconclusive: 21.3 µM [inhibitor, partial curve, poor fit]"}, {"smiles": "CCCNC(=O)CCc1c(C)nc2c(c(C)nn2-c2ccc(C)cc2)c1C", "Potency": "inactive"}, {"smiles": "CC(/C=C/c1ccccc1)=N\\NC(=O)c1ccc2c(c1)OCCO2", "Potency": "inconclusive: 30.1 µM [inhibitor, partial curve, poor fit]"}, {"smiles": "C#CCSc1nc2sc3c(c2c(=O)n1C)CCC3", "Potency": "inactive"}, {"smiles": "CC(=O)Nc1cccc(/C(C)=N/NC(=O)c2ccc(O)cc2)c1", "Potency": "inconclusive: 23.9 µM [inhibitor, single point]"}, {"smiles": "COC(=O)c1cn(NC(=O)c2cccc(OC)c2)c(=O)c2ccccc12", "Potency": "inactive"}, {"smiles": "COc1ccc2nc(N)sc2c1", "Potency": "inconclusive: 21.3 µM [inhibitor, partial curve]"}, {"smiles": "O=C(NC1=NCCS1)c1cc(-c2cccs2)nc2ccccc12", "Potency": "active: 12 µM"}, {"smiles": "CCN(Cc1ccccc1)C(=O)CCc1nnc(CCCc2ccccc2)o1", "Potency": "inconclusive: 23.9 µM [inhibitor, partial curve]"}, {"smiles": "O=C(NC(Cc1c[nH]c2ccccc12)C(=O)N/N=C/c1cccc2ccccc12)c1cccs1", "note": "(stereo unspecified)", "Potency": "inactive"}, {"smiles": "CCOC(=O)C1(Cc2ccc(OC)cc2)CCN(C(=O)Cn2cnnn2)CC1", "Potency": "inconclusive: 33.8 µM [inhibitor, partial curve, poor fit]"}, {"smiles": "COc1ccc(OC)c(CCNC(=O)Cn2ncc3c([nH]c4ccccc43)c2=O)c1", "Potency": "inactive"}, {"smiles": "CCCCN(CC)CCCNC(=O)c1nn(C)c2c1CSc1ccccc1-2", "Potency": "inactive"}, {"smiles": "CN1CCc2ccc(NC(=O)c3ccc(C(F)(F)F)cc3)cc2C1", "Potency": "inconclusive: 23.9 µM [inhibitor, partial curve]"}, {"smiles": "CCn1cc(C(=O)N2CCN(c3cccc(C)c3C)CC2)c2cc(OC)c(OC)cc2c1=O", "Potency": "inactive"}, {"smiles": "NNc1ncnc2c1cnn2-c1ccccc1", "Potency": "inconclusive: 12 µM [inhibitor, partial curve]"}, {"smiles": "Cc1ccc(NC(=O)c2ccc3ncsc3c2)cc1S(=O)(=O)N(C)C", "Potency": "active: 2.13 µM"}, {"smiles": "CC(C)C(=O)Nc1sc2c(c1C#N)CCCCC2", "Potency": "inconclusive: 8.49 µM [inhibitor, partial curve]"}, {"smiles": "COc1ccc(C(=O)N/C(=C\\c2ccco2)C(=O)OCc2ccco2)cc1", "Potency": "inconclusive: 23.9 µM [inhibitor, partial curve]"}, {"smiles": "COc1ccc(/C=N/N=C2\\CC3CCC2(C)C3(C)C)cc1O", "note": "(stereo unspecified)", "Potency": "inconclusive: 15.1 µM [inhibitor, partial curve, poor fit]"}, {"smiles": "CCCOc1ccc(-c2csc3ncn(Cc4ccc(C(=O)O)cc4)c(=O)c23)cc1", "Potency": "inconclusive: 37.9 µM [inhibitor, partial curve, poor fit]"}, {"smiles": "CCOC(=O)c1c(C)nn(-c2ccc(NC(=O)/C=C/C(=O)O)cc2)c1C", "Potency": "inconclusive: 26.9 µM [inhibitor, partial curve]"}, {"smiles": "CCOC(=O)c1c(C)[nH]c(CCC(=O)Nc2ccc(OC)c(OC)c2)c1C", "Potency": "inactive"}, {"smiles": "Cc1cc(C(=O)O)ccc1N/C=C1\\CCCC(C)C1=O", "note": "(stereo unspecified)", "Potency": "active: 0.953 µM"}, {"smiles": "COc1ccc2nc(NC(=O)c3c(C)noc3C)sc2c1", "Potency": "inconclusive: 3.16 µM [inhibitor, full curve, poor fit]"}, {"smiles": "CC(=O)n1c(Cl)c(NC(=O)CCl)c2ccccc21", "Potency": "inactive"}, {"smiles": "CC1=CC2=NC(=O)/C(=C\\c3cc(C)n(-c4cccc(Cl)c4)c3C)C(=N)N2O1", "Potency": "inconclusive: 21.3 µM [inhibitor, partial curve, poor fit]"}, {"smiles": "CC(C)c1ccc(OCC(=O)Nc2cccc3c2CCCC3)cc1", "Potency": "inconclusive: 30.1 µM [inhibitor, partial curve, poor fit]"}, {"smiles": "O=C(N/N=C/c1ccc(F)cc1)c1sccc1OCc1ccc(F)cc1", "Potency": "active: 9.53 µM"}, {"smiles": "CCOC(=O)/C=C(C)\\C=C\\c1c[nH]c2ccccc12", "Potency": "inconclusive: 37.9 µM [inhibitor, single point]"}, {"smiles": "O=C(CNc1ccc2c(c1)OCO2)N/N=C\\c1ccccc1Cl", "Potency": "inconclusive: 37.9 µM [inhibitor, single point]"}, {"smiles": "O=C(COC(=O)c1ccccn1)Nc1nc(-c2ccccc2)cs1", "Potency": "inconclusive: 37.9 µM [inhibitor, partial curve, poor fit]"}, {"smiles": "O=C(Nc1ccc(C(F)(F)F)cc1)c1ccccc1Br", "Potency": "inconclusive: 19 µM [inhibitor, partial curve, poor fit]"}, {"smiles": "COc1ccc(C(=O)O/N=C(\\N)c2ccc(Cl)cc2)cc1", "Potency": "active: 2.39 µM"}, {"smiles": "COc1ccc(S(=O)(=O)Nc2cc(S(=O)(=O)c3ccccc3)c(O)c(C)c2C)cc1", "Potency": "inconclusive: 13.5 µM [inhibitor, partial curve, poor fit]"}, {"smiles": "CCCNC(=O)c1n[nH]c2c1CC(C(C)(C)CC)CC2", "note": "(stereo unspecified)", "Potency": "inconclusive: 23.9 µM [inhibitor, single point]"}, {"smiles": "Cc1cccc2c1cnn2C(=O)Nc1ccc(Br)cc1F", "Potency": "inconclusive: 0.849 µM [inhibitor, full curve]"}]}]}
